Assay results as given in article PMC12136788.
The other results are listed elsewhere or left out.

T1: UNK ZnF1-3 (human, UniProt Q9C0B0 31-174)
T1 sequence: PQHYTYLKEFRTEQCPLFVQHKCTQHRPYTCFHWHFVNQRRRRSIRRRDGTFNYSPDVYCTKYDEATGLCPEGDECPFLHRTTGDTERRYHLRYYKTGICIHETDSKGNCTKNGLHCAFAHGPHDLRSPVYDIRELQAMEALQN

B1: 74721200_74721320_1198_3pUTR_ENSG00000113163_ENST00000380494|human|control|control (ssRNA)
RNA: GGGAGUUCUACAGUCCGACGAUCGUUCAUCCUUAGAGACAGCAUCAGCACAGGCAUCAAAGUACUUCUGUAGCGUGUCAACUUGUCUACAUAAGAUGUCUCUAAAUGUUUCCAUUUCAGCCAACUUCUCACGUAAACUGUGGCCAACAGAGGAUUGAGCAUCA
B2: chr11:102767452:102767453:-_ENSMUSG00000051378_ENSMUST00000021311|mus_hu|FALSE|FALSE (ssRNA)
RNA: GGGAGUUCUACAGUCCGACGAUCCAGGUCCAGCUCCUGGUGCAGGUGGCUACAGGUCCAAGAGGGGUAUCCAGCAGAGGGGCCGGUAGGUUAGGACACCUUGGUGGUCAGGACAUUCUGGCGGUCAGGACACCUUGGUGACGCCAACAGAGGAUUGAGCAUCA
B3: chr1:32384726:32384727:-_ENSG00000184007_ENST00000602725|perfect_dup|FALSE|FALSE (ssRNA)
RNA: GGGAGUUCUACAGUCCGACGAUCAAAAAAAAAUCAAUAAAUCUUGAAAUGUUUCACAGCAGAAAACAUUAAAAAGACCACUAAAAUGCCUAUUAUCAAUCAGUGUUUUCUCUAUUCAACUUGUUUAUUCCUUAUGAAGCUUCUCAACAGAGGAUUGAGCAUCA
B4: chr4:62048941:62048942:+_ENSMUSG00000066150_ENSMUST00000084526|mus_mus|FALSE|FALSE (ssRNA)
RNA: GGGAGUUCUACAGUCCGACGAUCUUGAGACUUUCGAAGCAGACCCUCUCGGGCUAUCUUGAGUCCUUCAUAAAACAUUGCUAGUAAAAACACUGCCACGAAGGCUCCAGCCAUUUCUCCAGGUGUAUUGAUUACCAAACCGGACAACAGAGGAUUGAGCAUCA
B5: chr6:109703465:109703466:-_ENSG00000135535_ENST00000310786|hu_hu|motif|central (ssRNA)
RNA: GGGAGUUCUACAGUCCGACGAUCAGUGGUGACCAGCGGGAGGGACGUCACCGGCGCCGAGGUUACGUUGGAGAUGGGCGCGGAAGUCGUCACGUUCGGGUGCUGGGUCGUGUUCUUGUCCGCGGACAGCACGCAGAGCACGCCCAACAGAGGAUUGAGCAUCA
B6: chr5:68553883:68553884:+_ENSG00000134058_ENST00000256443|hu_hu|FALSE|FALSE (ssRNA)
RNA: GGGAGUUCUACAGUCCGACGAUCUCCUUGAAGAGUCAUCAACAUGUAGGCUUUGAUGUGUGAUGGUGUCAGCACAAGACUAUUAUCCUUUAUUAUAACCUCUAGAUCAGUUUCCAUAAAAUCAAAGACAAGGCUAAUAUUAGACAACAGAGGAUUGAGCAUCA
B7: chr5:37680062:37680063:+_ENSMUSG00000029121_ENSMUST00000031004|mus_hu|mus_mus_mus_hu_False|1_88 (ssRNA)
RNA: GGGAGUUCUACAGUCCGACGAUCUUUGGGUGUAGCUGGUACCUCGUACACAGGCCCGUCAUACAUGCCCCUGGAAACCCCUUGCAAUCCAAAAACCUUAUUCCUGAUUUUGACGCGCUGGUACAGGUGCUCCGGGAAUGGCUUCAACAGAGGAUUGAGCAUCA
B8: chr3:154749246:154749247:-_ENSMUSG00000053870_ENSMUST00000066568|mus_mus|FALSE|FALSE (ssRNA)
RNA: GGGAGUUCUACAGUCCGACGAUCGUUUUGUUACGUGUUGUCUCACUAUGAGAAGUUGAGCAAUACAAUCCUCCAUAUCACCUAGAAUUUUAUUGGUCCAAAUUUCAAAAGAAGAUAGAAAAGCUUUAAAGAUAUGUUAUGUUUCAACAGAGGAUUGAGCAUCA
B9: chr1:165664616:165664617:-_ENSG00000143149_ENST00000354775|hu_hu|motif|central (ssRNA)
RNA: GGGAGUUCUACAGUCCGACGAUCCUUUGCAUUUUGAACAGCCAAAUUUACUUCCUUUUCUCCUGAACAUGUGAAAGUAGCGGUCACUCGGCCGGUUGCUGGCUCGAAAGCUUUCUCGGUACCGGAGGCGUCCGCCGGCUCCACCAACAGAGGAUUGAGCAUCA
B10: 45394817_45395722_779_CDS_ENSG00000175387_ENST00000356825|human|control|control (ssRNA)
RNA: GGGAGUUCUACAGUCCGACGAUCUGGAGGCAAAACUGGUGUCUCAACUCUCUGAUAGUGGUAAGGGUUUACACAUACUUCAUCCUUUUUAAGAUUAAAAGCAUAUUCGCAGUUUUCAAUUGCCUUGAGUUCAUGAUGACUGUGCAACAGAGGAUUGAGCAUCA
B11: chr17:27613171:27613172:-_ENSG00000108256_ENST00000225388|hu_hu|FALSE|FALSE (ssRNA)
RNA: GGGAGUUCUACAGUCCGACGAUCCGUAGGAGAGGCCAGAGGAUUUUGACUUUCUAUCUCGUAGUCCUUUGAGAGAAACACUAAAGCACCUUGACUACUGGUGUCUGCUUUCUGCAGGUCACCUAUAUGACUGGGUUCCAAGGACAACAGAGGAUUGAGCAUCA
B12: chr2:9570881:9570882:+_ENSG00000119203_ENST00000238112|hu_mus|hu_hu_hu_mus_False|28_108 (ssRNA)
RNA: GGGAGUUCUACAGUCCGACGAUCACUUGUCUUCUGUAGGAACCAGGGCAGGGCUCCACAGUGAUCCAAAUGGAAAUGACUGAUCAACAGAAGGUCGAUCUCAGCUGGGUCAAUUAAGUCAAUGUAAGGAAGGGCAUCCAUUCCCAACAGAGGAUUGAGCAUCA
B13: 38265305_38266082_1035_CDS_ENSG00000172939_ENST00000311806|human|control|control (ssRNA)
RNA: GGGAGUUCUACAGUCCGACGAUCCUGCAGUGUCAGCAUUAAAACCUUCAUUGGUGGAUAUUUAUGAUAAGGAGCCGCCCCUGUAGCCAAUUCAAUUGCUGUAAUUCCAAAACUCCAAAUAUCAGCUUUGAAAUCAUAACCACGCAACAGAGGAUUGAGCAUCA
B14: chr17:85413340:85413341:+_ENSMUSG00000061130_ENSMUST00000080217|mus_mus|FALSE|FALSE (ssRNA)
RNA: GGGAGUUCUACAGUCCGACGAUCAGUCAAUCUUAAACUAUCAUAAAGGUGUAUGCAAAGGCCUUUAAAAAAACCAAGACUAUAGGAAUAUAAGAAAACUAGUUUUUCAAGAUUCAAAUAACAAAAUGGUUAUAUAAAAGCACACAACAGAGGAUUGAGCAUCA
B15: chr7:44244176:44244177:+_ENSG00000106636_ENST00000223369|hu_mus|hu_hu_hu_mus_False|1_78 (ssRNA)
RNA: GGGAGUUCUACAGUCCGACGAUCACUGUCGCUCCGGACGUAGACAUGGCAAAGAUAGUCUUGUUCUUUGACAGAAGCUCUGCUGCCUUUCCCCGAGCGUUCCACAAUCAGUUGACUUGUAAAGGUCAUGAAUUCCUGAACGCUCAACAGAGGAUUGAGCAUCA
B16: 134976240_134981154_508_3pUTR_ENSMUSG00000059713_ENSMUST00000030606|mouse|control|control (ssRNA)
RNA: GGGAGUUCUACAGUCCGACGAUCGCUUGCUGAAGUUGAUCCUCACUCUGCGAAAGCUCUUGAACAACUGGAAUGUGACCUGGUCAUCGUAGAGGGUGAACAGGGCCUCAAACCUCUCCUUUUGCUCUUGGACCUCAAACACUGCAACAGAGGAUUGAGCAUCA
B17: chr5:134235298:134235299:+_ENSG00000113621_ENST00000507024|hu_mus|FALSE|FALSE (ssRNA)
RNA: GGGAGUUCUACAGUCCGACGAUCUUGUCCUGGAAUCAGCCACCGAAUACUCUCAGUGCGGAUGGUAGCAUACAUAAUGAAACUAAUUAAAAAGAACAAGGAAAACACCAGCAACCAAUCCACAGUCUUUAUCAAAGUGCUGGGCAACAGAGGAUUGAGCAUCA
B18: 103108383_103108503_1224_CDS_ENSG00000136891_ENST00000374902|human|control|control (ssRNA)
RNA: GGGAGUUCUACAGUCCGACGAUCGAGUUUCCACAGAAGGGAAAUAAUAUUAAGAACUUGCUGCAUAACCUGUAGAGGUUCUCGUUCUAUACCAUUCCCAACAGGAGUAGCUAGUUGUGGAGGUACAGCUUCAACCCAGCAUUCCAACAGAGGAUUGAGCAUCA
B19: chr5:121768680:121768681:+_ENSMUSG00000042744_ENSMUST00000119892|mus_hu|FALSE|FALSE (ssRNA)
RNA: GGGAGUUCUACAGUCCGACGAUCUUGGGCAGUUUUCUUUUUGUCGCCUGUGGAUAGUCCACUCACAGUCUCUGGGUUGAUAGACUCUACAGGUGGCCCAAUGCUGACGAUGAGGCCUGACUGUGCCCACUUGGUGGCUUUCCGCAACAGAGGAUUGAGCAUCA
B20: chr6:160200703:160200704:-_ENSG00000120438_ENST00000392168|hu_hu|FALSE|FALSE (ssRNA)
RNA: GGGAGUUCUACAGUCCGACGAUCAUGAAAAGCUCUUAAUUUUGCAACCAGAUCUGUGGAGUCCUGGGCAGCAUUAACUGCUAGUGUAUUGGGAAUAACAAGAAGUGAUCUUGCAAACUCUGCAAUCGCAAGCUGUUCCCGAGACAACAGAGGAUUGAGCAUCA
B21: 56000718_56002823_2382_CDS_ENSMUSG00000022601_ENSMUST00000050248|mouse|control|control (ssRNA)
RNA: GGGAGUUCUACAGUCCGACGAUCUCCUGUGUGAAUACUCAUAUGUUCCUGAAGACUCCGCUUGGUAACAAAUGACUUGACACACAGUUCACACUGAAACUGCUUUUGUGAUUGAUGCAGACUUUGAUGCAAUUUUAGACCAUGCAACAGAGGAUUGAGCAUCA
B22: chr5:125866394:125866395:-_ENSMUSG00000008348_ENSMUST00000136312|mus_hu|FALSE|FALSE (ssRNA)
RNA: GGGAGUUCUACAGUCCGACGAUCACAACUUUAUUGAAAGGAAAGUGCAAUGAAAUUUGUUGAAACCUUAAAAGGGGAAACUUAGACACCCCCCCUCAAGCGCAGGACCAAGUGCAGAGUGGACUCUUUCUGGAUGUUGUAGUCCAACAGAGGAUUGAGCAUCA

biological target: T1, UNK ZnF1-3; assay: nsRBNS (natural sequence RNA bind-n-seq); RBNS binding buffer (assumed for nsRBNS): 25 mM Tris pH 7.5, 150 mM KCl, 3 mM MgCl2, 0.01% Triton X-100, 500 ug/ml BSA, 20 U/ml SUPERase-In, 4 C; UNK is unkempt and MSI1 is Musashi-1; names of the RNAs are library labels; protein concentration not given here; high values mean tight binding

Binder | binding signal [enrichment R]
B1 | 0.712
B2 | 0.867
B3 | 0.842
B4 | 0.912
B5 | 0.65
B6 | 1.12
B7 | 0.813
B8 | 1.64
B9 | 0.651
B10 | 0.594
B11 | 1.32
B12 | 1.3
B13 | 1.15
B14 | 1.69
B15 | 0.509
B16 | 0.88
B17 | 1.82
B18 | 0.85
B19 | 0.417
B20 | 0.921
B21 | 0.659
B22 | 1.57
